The assay concerns retroviral vector MPSV sup. neo. In words: microbe, parasite or virus in culture. The conditions noted are these: Moloney murine sarcoma virus, HL-60, in Mus musculus. Here is the method:
24 hours before infection, confluent 90mm plates of NIH-3T3 cells were trypsinized and re-plated at a density of 1 x 10^5 cells per 90mm plate. At the time of infection, 150 recombinant virus colony forming units (previously titred by infection of NIH-3T3 cells and selection of G418-resistant colonies) and 8µg ml^-1 polybrene (1,5-dimethyl-1,5- diazaundecamethylene polymethobromide), were added to the NIH-3T3 cells. After 72 hours, the cells were trypsinized and 1/10th of all the cells which were originally infected were plated on 90mm plates in the presence of G418 at a final concentration of 1mg ml^-1. The colonies were counted after a further 7 days following fixing and staining with Giemsa-methanol stain. The control number of colonies, when neither inhibitors nor inhibitor analogues were used, was 201 ± 0, n = 2.
The above experiment was repeated, except that the retroviral vector MPSV sup. neo (see Example 4 below) was used to infect HL-60 cells. The effect of the poly(ADP-ribose) polymerase inhibitors 5-methyl nicotinamide and chlorthenoxazine was investigated.
MPSV^28 is a recombinant retroviral vector based on the murine myeloproliferative sarcoma virus and is constructed as shown in Figure 2. This vector carries the neomycin phosphotransferase ("neo") gene. This vector also contains the suppressor mutation supF. A suppressor mutant is a mutant which is able to overcome the effects of another. In tRNA suppressor systems, the primary mutation changes a codon in an mRNA so that the protein product is no longer functional; the secondary, suppressor mutation changes the anticodon of a tRNA, so that it recognizes the mutant codon instead of (or as well as) its original target codon. The amino acid that is now inserted restores protein function. The suppressors are named as nonsense or mis-sense, depending on the nature of the original mutation. SupF is in the former category.

[1] abbreviates: read-out: % inhibition achieved.
[2] abbreviates: read-out: % of control colonies counted.

From EP0531370B1, “INHIBITION OF VIRAL INFECTION” (priority 1990, dated 1991) come the findings set out here.

As for `Cc1cncc(C(N)=O)c1` [5-methyl nicotinamide], under setting [1], the inhibition at 500 µM is 30% and the inhibition at 2000 µM stood at 35%. Also, under setting [2], the activity at 100 µM is 183%, the activity at 500 µM came out at 70% and the activity at 2000 µM turned out to be 65%.

As for `O=C1NC(CCCl)Oc2ccccc21` (centres unmarked) [Chlorthenoxazine, chlorthenoxazine], under setting [1], the inhibition at 25 µM turned out to be 36%. Besides, under setting [2], the activity at 25 µM was determined as 64% and the activity at 100 µM was 49%.
